Screen size: about 50,000 compounds; about 800 (1.6%) showed an effect of 50% or more. The list shows a part of the results.

This assay deals with Bcl-2-like protein 10 (Homo sapiens) (UniProt Q9HD36). The assay is described as follows: TR3 peptide-Bcl-B binding displacers, biochemical primary FP assay, phenotype converters (AID 1240).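 Note: 0% = Bcl-B with tracer peptide and DMSO and 100% = tracer peptide lacking Bcl-B.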 The note with it: GST-Bcl-B / FITC-TR3 peptide fluorescence polarization; stronger effect = higher value; compound at 3.75 mg/L.
UniProt Q9HD36, sequence (Q9HD36 whole entry, looked up): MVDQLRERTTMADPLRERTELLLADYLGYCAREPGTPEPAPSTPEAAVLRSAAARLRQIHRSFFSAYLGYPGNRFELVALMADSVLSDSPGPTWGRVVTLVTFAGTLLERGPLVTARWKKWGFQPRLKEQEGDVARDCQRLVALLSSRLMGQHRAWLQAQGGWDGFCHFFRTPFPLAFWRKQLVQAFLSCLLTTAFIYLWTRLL
For `CCOC(=O)c1c(NC(=O)Cc2ccc(Cl)cc2)sc(C(=O)Nc2ccccc2OC)c1C`, the displacement was -0.5%. `CCCCOc1cc2oc(=O)c(CC)c(C)c2cc1CC`: the displacement was found to be 0.2%. For the compound `O=C1NC(=O)N(c2cccc(F)c2)C(=O)/C1=C/c1ccc(I)o1`, the displacement was found to be 5.9%. On to `CC(=O)NC(Oc1ccc(C=Nc2c(C)n(C)n(-c3ccccc3)c2=O)cc1)C(Cl)(Cl)Cl` (stereo not drawn), for which the displacement was -2.8%. Under `COc1cc(C2NC(C(=O)O)CS2)cc(I)c1OCc1ccccc1` (stereo not drawn) stands -19.6%. Take `CCn1c(/N=C/c2c(O)ccc3ccccc23)nc2ccccc21`: the displacement is 20.6%. As to `CC(=O)Nc1ccc(-c2ccnc(-c3ccc(NC(C)=O)cc3)n2)cc1`, the displacement was -51.8%. In the case of `O=C1NN(c2ccc(Br)cc2)C(=O)/C1=C\c1ccccc1`, the displacement amounted to 21.3%. For `O=[N+]([O-])c1cc([N+](=O)[O-])c(Nc2ccccn2)nc1Nc1ccccn1`, the displacement was found to be 9%.

With `CCOC(=O)/C(C#N)=C1\C=CNC(=O)N1`, the displacement is 2.6%.

As for `O=C(CSc1nsc(SCC(=O)Nc2nccs2)n1)Nc1nccs1`, the displacement amounted to 26.3%.

Turning to `O=C(NC(NC(=S)Nc1cccc2ccccc12)C(Cl)(Cl)Cl)c1ccccc1F` (stereo not drawn), the displacement was -6.9%. Under `CC1=C(C(=O)Nc2ccccc2)C(c2ccccc2F)NC(=O)N1` (stereo not drawn) stands 15.9%; under `Oc1cccc(C=Nc2ccccc2O)c1`, 14.7%. As to `CCOC(=O)c1c(NC(=O)CCN2C(=O)c3cccc4cccc(c34)C2=O)sc2c1CCC2`, the displacement was -6%. Under `CCOc1ccc(NC(=O)CC2S/C(=N\N=C(/C)c3ccc([N+](=O)[O-])cc3)NC2=O)cc1` (stereo not drawn) stands -1.5%. Under `COc1cc(C2=Nc3ccc(Br)cc3C(c3ccccc3)N2CC(=O)NN)cc(OC)c1OC` (stereo not drawn) stands -10.2%; under `COc1ccc2c(c1)OCC/C2=N\OC(=O)c1ccccc1OC`, -7.8%. Take `COC(=O)CSc1nc(C)cc(C)n1`: the displacement stood at 5.9%. Turning to `O=C(O)CN1C(=O)/C(=C\c2ccc(OC(=O)c3ccc(Cl)cc3Cl)cc2)SC1=S`, the displacement was determined as 10.5%.

Regarding `CCN1C(=O)NC(c2ccc(SC)cc2)C(C(=O)OCCOC)=C1C` (stereo not drawn), the displacement is -9.3%.

Take `CCN1CCc2c(sc(NC(=O)Nc3ccc(Cl)cc3)c2C(N)=O)C1`: the displacement was determined as 21.3%.

Turning to `CCOC(=O)C(C)N(c1ccc(OC)cc1)S(C)(=O)=O` (stereo not drawn), the displacement is 2.6%. For the compound `Cc1cccc(C(=O)Nc2sc3c(c2C(=O)N2CCOCC2)CCCC3)c1`, the displacement is 0.9%. Under `O=C(NC(=S)Nc1ccc(-c2nc3cc(Cl)ccc3o2)cc1)c1ccccc1Cl` stands -8.9%; under `N#C/C(=C/c1ccc(I)o1)C(=O)Nc1ccccc1Cl`, -6.3%; under `COc1ccc(S(=O)(=O)Nc2ccc(Br)cc2F)cc1`, -10.2%. Under `Cc1cccc(NC(=O)C(=O)N/N=C/c2c(Cl)cccc2Cl)c1C` stands 13%. Under `O=C(Nc1sc2c(c1C(=O)N1CCOCC1)CCCCC2)c1ccc([N+](=O)[O-])cc1` stands -2.7%; under `O=C(Nc1ccccc1C(F)(F)F)c1ccc(-c2cccc(Cl)c2)o1`, -8.1%; under `COc1ccc(C(=O)N2CCN(c3ccc([N+](=O)[O-])cc3)CC2)cc1Cl`, 17.7%. `O=C(Nc1ccccc1C(=O)N1CCOCC1)c1ccccc1Cl`: the displacement is 15.5%. `COc1ccc(C2=C/C(=C/c3ccc(OC)c(OC)c3)C(=O)O2)cc1`: the displacement worked out at 154%. Under `CC(=O)Nc1ccc(C(=O)N2CCCc3ccccc32)cc1` stands -7.1%; under `c1ccc2cc(OCCCCN3CCOCC3)ccc2c1`, -5.3%; under `CCOC(=O)c1c(NC(=O)c2cc(OC)c(OC)c(OC)c2)sc(C(=O)Nc2ccc(OC)cc2OC)c1C`, -17.5%. `CSc1nc(=S)n(-c2ccc([N+](=O)[O-])cc2)c(C)c1C(C)=O`: the displacement is -6.7%. As to `Cc1[nH]c2ccccc2c1C(=O)/C=C/c1cccs1`, the displacement is -1.3%. Under `Cc1onc(-c2ccccc2Cl)c1C(=O)NC1CCCCCC1` stands 5.4%. Under `CCOc1ccc(S(=O)(=O)NNc2ccccc2)cc1` stands -6.1%.

Turning to `COc1cc(C2N(C)c3ccccc3N2C)cc(OC)c1OC`, the displacement is -8.1%. `O=C(O)CCC(=O)N1N=C(c2ccccc2)CC1c1ccccc1Cl` (stereo not drawn): the displacement is 13.2%. As for `CCCS(=O)(=O)c1c(S(=O)(=O)CCC)c2cc(-c3ccncc3)ccn2c1C(=O)c1ccccc1`, the displacement was -3.5%. `CCOc1ccc(C(=O)Nc2ccc(NC(=O)c3ccccc3)c(C)c2)cc1`: the displacement amounted to 9.4%. Under `NC(=O)C12CC3CC(C1)CC(C(N)=O)(C3)C2` stands -18.4%. Turning to `CN(C)c1ccc(NC(=O)Nc2ccc(Cl)cc2)cc1`, the displacement is -8.6%. Under `COCCc1nnc(NC(=O)Cc2ccccc2)s1` stands 1.2%; under `COC(=O)C1=C(C)N=c2s/c(=C\c3ccc(-c4ccccc4C(=O)O)o3)c(=O)n2C1c1ccccc1` (stereo not drawn), -44%. `N#CSCCCCOc1ccccc1Br`: the displacement was determined as 15.9%. Under `O=c1[nH]c(=O)n(-c2cccc(Cl)c2)c(O)c1C=NCCCn1ccnc1` stands 142%; under `O=[N+]([O-])c1ccc(N2CCN(S(=O)(=O)c3ccccc3)CC2)c2cccnc12`, 10.2%. Under `COc1ccc(OC)c(C(O)c2nc3ccccc3n2C)c1` (stereo not drawn) stands -3.9%. Take `CC(=O)Nc1ccc(S(=O)(=O)Nc2nc(C)cc(-n3nc(C)cc3C)n2)cc1`: the displacement is -3.7%. Under `COC(=O)c1c(N)sc(C)c1-c1ccc(C(C)(C)C)cc1` stands 8.1%; under `Cc1ccc(C23CC4CC(CC(C(=O)N5CCCC5)(C4)C2)C3)cc1`, -3.3%; under `O=C(Nc1ccccc1)c1ccc(NS(=O)(=O)c2ccccc2)cc1`, 9.6%. For the compound `Cc1ccc(CC2C(=O)N(c3ccc([N+](=O)[O-])cc3)C(=O)C2C)cc1` (stereo not drawn), the displacement was 3%. Regarding `COC(=O)c1cccc(-n2c(C)cc(/C=C3\SC(NC(C)=O)=NC3=O)c2C)c1`, the displacement was found to be 1.1%.

Consider `O=C(CSc1nc2ccccc2s1)OCc1ccc([N+](=O)[O-])cc1`, for which the displacement is -0.7%. With `COc1ccc(/C=C/C(=O)NCc2ccc(OC)cc2)cc1`, the displacement was 3.7%. Under `COc1cc(/C=C2\C(=O)NC(=O)N(c3ccc(Br)cc3)C2=O)c([N+](=O)[O-])cc1OC` stands 5%. Under `CCN1C(=O)/C(=C\c2ccccc2OCCOCCOc2ccc(C)cc2)SC1=S` stands 26.9%. Consider `CCc1nnc(NC(=O)c2ccc(OC)cc2OC)s1`, for which the displacement amounted to 4.7%.

Consider `S=C(Nc1ccccc1)Nc1ccccc1NC(=S)Nc1ccccc1`, for which the displacement was 9.7%. On to `CC(C)C(C(=O)O)N1C(=O)/C(=C/c2cccc([N+](=O)[O-])c2)SC1=S` (stereo not drawn), for which the displacement was determined as 10.4%.

On to `Cc1ccccc1NC(=O)C1C2C=CC(C3CC23)C1C(=O)O` (stereo not drawn), for which the displacement came to 4.7%. Under `Cc1ccc(C23CC4CC(CC(C(=O)NCc5ccco5)(C4)C2)C3)cc1` stands -10.6%. Under `O=C(Nc1cccc(-c2cn3ccccc3n2)c1)c1cccnc1` stands -1.3%.

The values are drawn from PubChem BioAssay AID1240 (Sanford-Burnham Center for Chemical Genomics, 2008).
